The other results are listed elsewhere or left out. At the low end of the ranking the order means little.
Biological target: T1, GST-Rok (full length) (UniProt O34857)
T1 sequence: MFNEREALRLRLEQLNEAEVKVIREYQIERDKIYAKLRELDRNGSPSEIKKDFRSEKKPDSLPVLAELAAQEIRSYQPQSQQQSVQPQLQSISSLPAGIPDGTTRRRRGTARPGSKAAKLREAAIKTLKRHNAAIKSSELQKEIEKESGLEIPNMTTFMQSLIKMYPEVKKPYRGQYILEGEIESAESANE
Assay: protein binding microarray;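 also: rank score from −0.5 (least bound) to 0.5 (best bound)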
Settings: Rok is a gene silencer of Bacillus subtilis; high values mean tight binding; most listed sequences are background and not binding sites; double strand, one strand shown

Sequence	binding signal [E-score]
CGATCCGA	-0.0947
GTCGAGGA	-0.127
GAACATCA	0.0639
CACTTCAC	-0.0206
CATGGCTA	-0.0494
AGTTAGAG	0.182
AAGCCCGC	-0.256
GGGTCCAC	-0.266
CCATCCGA	-0.117
ACCGACAC	0.0508
ATGAGGTC	-0.181
CATCCCAC	-0.223
CGGGGATA	-0.022
GGCCCAAA	-0.215
CCTCACTC	-0.184
CACAGTAC	-0.0633
CGTCGCAC	-0.16
AATGTACA	0.347
ATACGCAA	0.272
CCTGTCCC	-0.133
AAGCGAAG	0.00699
GCGTGACA	-0.265
CTAGAGAA	0.193
TGCTGCCA	-0.196
GGGATCTA	0.262

Sequence	binding signal [E-score]
CATCTGGC	-0.164
ACACTCAG	0.0129
AATGAGTG	0.0141
AAAATGAT	0.171
GACACCAA	-0.0592
ATCATGAG	-0.129
GGCTCGAA	-0.106
CTTCGACC	-0.228
CATGGGGG	-0.307
GGCCTAAC	-0.306
AAGGCTCA	-0.344
CACCAGAG	-0.0905
CTATCACC	0.184
GAAGAAGC	-0.267
ACTGTCGA	0.0777
CCTATACC	0.171
CCTCCTAC	-0.245
CACCGAAC	-0.239
AGGGTATC	-0.186
CGTGACGC	-0.15
ATGAGCGG	-0.167
CGAAATGA	-0.0356
CCTTAATC	-0.174
ACAATGCT	-0.0851
ATTTAGGC	-0.0308

Sequence	binding signal [E-score]
GCACTCGC	-0.41
AGTTGAAC	0.0051
ACGGGTCT	-0.138
AACCTAGA	0.0843
GACGGCGC	-0.366
AATTTCCC	-0.000701
CATGAAAG	-0.0701
ATTCGGCG	-0.154
ACGCAGGA	-0.179
CCTGACAC	-0.294
CGAAGAGC	-0.117
CGAACAAG	-0.0546
AATTTCGG	0.0359
CGTATACA	0.227
TACAATCA	0.157
CGATAGAG	-0.134
GCAAATGA	0.0997
CGTGACCC	-0.282
ATAGTACA	0.332
AGACCTAT	0.0658
TACGCTAA	0.181
CCTACGAA	0.131
GGCTTATA	0.0718
ACGACCTA	0.0968
CGGCGTAC	-0.0917

Sequence	binding signal [E-score]
AAGCTGCA	-0.106
AATACCGG	0.193
ATAGTCAC	0.0659
TCCCACAA	0.0219
CGGGACTC	-0.31
AATCCCAT	0.0228
CAGTGGCG	-0.105
CGGTAAGA	-0.0666
CTTTGCAA	-0.176
ATAACGGC	0.098
CACCGAGC	-0.126
AGATAGCA	0.201
AAAGCATC	-0.159
AAACGCCA	-0.072
CGGCAATA	0.00897
AAATTATA	0.413
CATAAGGA	-0.0425
GCGAACCC	-0.23
ATGGAGGC	-0.13
ATCTCGGC	-0.138
TCGGGAAA	-0.159
GAAGTATC	0.326
CGTGCAGC	-0.0322
ACGTCATA	0.128
AGCAAGGA	-0.202

Sequence	binding signal [E-score]
GTGTAGTA	0.379
AAGGTATT	0.14
TATCATAA	0.162
GCGGTCAA	-0.132
CACCTATG	-0.176
AATTCACC	0.115
AGTAGCTG	0.204
GAATGCAC	-0.022
AGAGCGAT	-0.0891
GAAGCCGA	-0.0578
CGGCCACA	-0.268
TGCCCGAA	-0.238
GTAGCCAA	-0.0619
AGACGCCA	-0.226
GGCGGTTA	-0.11
CTTGCATA	0.0428
ATGTACCC	0.0665
AATAACCT	0.0317
TGAATTCA	0.147
CATACGGG	-0.188
CAAGATTC	0.129
CATCATAA	0.0866
GAGTGAAA	-0.103
ACTGTTGA	0.0285
GCCCAGAC	-0.25

Sequence	binding signal [E-score]
AAGTCATG	0.0874
CCGGCCCC	-0.392
ACCTGGCA	-0.089
AGCTCAAA	-0.222
CCCTTTTC	-0.171
CCGCCGCA	-0.346
CTGAGGTC	-0.269
TAGCGAAA	0.144
ATTACGCC	0.0644
CGATCTCA	-0.192
ATGCCGCC	-0.217
CTGTACAA	0.0838
GTGAACTA	0.212
GCTTAAGC	-0.201
GGCGGCTA	-0.109
ACTGGTAT	0.195
CCGGTTTA	0.0148
ATATGAAC	0.126
AGTGTAAC	0.151
CTGGGCCA	-0.2
CCATGAGC	-0.177
CACTTTTC	0.0315
GTGGGCTA	-0.119
GCACCCGA	-0.295
CAGAGTAG	-0.113

Sequence	binding signal [E-score]
GAACGCCC	-0.331
GTTACCGA	0.15
AAGACATG	-0.0697
AGAATGAT	0.242
CTATTGTA	0.381
ATAAGCTC	-0.154
CTCATTGA	0.00734
ACACTTGC	-0.0774
CTACCCGA	-0.0584
AACGGACA	0.0656
CATGTCAA	0.144
AATCAAAT	-0.0384
AAAATATC	0.275
GTAACGAC	0.166
GCGAGATA	0.149
TCCATGCA	-0.0824
AACCCGTT	0.000276
CGGCTCCC	-0.379
CATTCTAC	0.407
GACAACAC	-0.0144
ATTCGGTC	0.0426
AATCACCC	-0.145
CGTGACTA	0.0779
AACCGATT	-0.0941
CAGGGCGA	-0.375

Sequence	binding signal [E-score]
CCGAATAC	0.0709
CGACGTGC	-0.0293
AACATTCA	0.0759
CGACCAAA	0.012
AAGACCCC	-0.295
AGCGCTCG	-0.244
GCGGAACC	-0.346
CGTCCTAA	-0.0629
ACTACGCA	0.027
GCTCGAAC	-0.0353
AACTGATG	0.111
GCTATGCC	-0.275
AGCCCCTA	-0.323
AACGCGTC	-0.159
GGTAGCAC	0.158
CCCTGAGA	-0.153
AGTACACA	0.278
ACAAGAAG	-0.052
AGGAATGA	-0.0111
AGGAAATA	0.107
TATGTACA	0.378
AAGACAAT	0.0596
ACTTGTTA	0.224
CCACGCTC	-0.0667
AGCCCACT	-0.114

Sequence	binding signal [E-score]
GACAGTAC	0.0207
GCTCGAAA	-0.0122
GTAGACAC	-0.0975
ATCCTACC	0.256
ATTCCGGC	0.11
GCCGCAGA	-0.284
ATCGACAG	0.0183
AGGGAACG	-0.149
ACCGGCCG	-0.0951
AGATCTGG	-0.0378
AATCGAGC	0.0782
CATTGAGC	-0.241
GGCGACTA	-0.254
AGTTTAAG	-0.0396
CGTCTGAC	-0.293
CCATCGGA	-0.23
AAGGGAGA	-0.313
ACTGCGTG	-0.118
CATTTGCA	0.0756

Source: publication PMC6212790
